PubChem BioAssay AID485294 (National Center for Advancing Translational Sciences (NCATS), 2010)
In all, about 370,000 compounds went through this assay and about 150 (0.041%) were called active. Inconclusive results, whose numbers are uncertain, are shown with a selection of clear calls. The call rests on the fitted dose curve; in most records, active means well fitted inhibition curve with a large enough effect; inconclusive means small, poorly fitted or top-dose-only effect; inactive means flat fitted curve, though single readings scatter. Potencies of inconclusive entries are left out as doubtful fits.

target: Beta-lactamase (Escherichia coli (strain K12)) (UniProt P00811); test: qHTS Inhibitors of AmpC Beta-Lactamase (assay with detergent); conditions: AmpC hydrolysis of nitrocefin, absorbance 480 nm, 0.01% Triton; activity change, negative = inhibition: at 114 µM (top of the series); further: nearly all actives have a fitted effect of over 25% in size;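 on activity change, negative = inhibition: 0% = no-compound wells and -100% = no-enzyme wells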
Method in brief: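 AmpC (5.3 nM in the dispensed reagent) in 20 mM phosphate pH 7.0 with 0.01% (detergent screen) or 0.0001% Triton X-100 was preincubated with compounds for 15 min at room temperature. Nitrocefin was then added from an 800 uM solution, and hydrolysis was followed at 480 nm.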
Potency means the concentration at half of the fitted maximal effect; tags describe the fitted curve by direction and shape.

UniProt P00811, sequence (P00811 whole entry, looked up): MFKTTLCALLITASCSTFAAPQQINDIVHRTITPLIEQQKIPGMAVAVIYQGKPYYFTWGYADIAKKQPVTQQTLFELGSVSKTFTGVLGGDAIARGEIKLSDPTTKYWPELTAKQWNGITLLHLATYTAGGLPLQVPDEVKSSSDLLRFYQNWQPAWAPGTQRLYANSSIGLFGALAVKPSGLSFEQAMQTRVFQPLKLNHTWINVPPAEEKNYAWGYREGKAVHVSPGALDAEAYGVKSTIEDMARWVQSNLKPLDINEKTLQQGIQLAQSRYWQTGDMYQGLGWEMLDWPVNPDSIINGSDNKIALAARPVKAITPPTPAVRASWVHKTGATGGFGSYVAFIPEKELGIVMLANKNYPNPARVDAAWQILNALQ

SMILES	Potency	activity change, negative = inhibition
CCCCS(=O)CC(COc1ccc(Cl)cc1)OC(=O)c1ccccc1 (stereo unspecified)	inconclusive [inhibitor, full curve]	
O=C(O)c1ccc(CNCc2ccccc2Cl)s1		inactive: 1.03%
COc1cc(/C=C/C(=O)O)cc(S(=O)(=O)Nc2cccc(SC)c2)c1OC	inconclusive [inhibitor, partial curve, poor fit]	
Cc1ccccc1NC(=O)OCc1cccnc1Sc1ccc(Cl)cc1	inconclusive [inhibitor, partial curve, poor fit]	
COc1ccc(CNC(=O)CCSCc2cccc(F)c2)cc1	inconclusive [inhibitor, partial curve]	
CCN(CC)CCn1c(=N)n(CCO)c2ccccc21	inconclusive [inhibitor, single point]	
COc1ccc(/C=C2\N=C(C)OC2=O)cc1[N+](=O)[O-]		inactive: 6.49%
NC(=O)Cn1cnc(-c2ccccc2)c1		inactive: -5.85%
CCCCOC(=O)Nc1sc2c(c1C(=O)OC)CCC2	inconclusive [inhibitor, partial curve, poor fit]	
Cc1cccc(C(=O)N2CC(=O)Nc3ccc(F)cc3C2c2ccc(F)cc2)c1 (stereo unspecified)	inconclusive [inhibitor, full curve, poor fit]	
O=C(Oc1cccc(Cl)c1)N1CCOCC1	inconclusive [inhibitor, full curve, poor fit]	
O[C@@H]1CN(Cc2ccccc2Cl)CC[C@H]1N1CCOCC1		inactive: -6.61%
COc1cccc(OC)c1C(=O)Nc1cccc2c1CCCC2	inconclusive [inhibitor, full curve, poor fit]	
Oc1ccccc1C(=S)N1CCCC1	inconclusive [inhibitor, full curve]	
CCc1oc2c(C)c(O)ccc2c(=O)c1-c1ccc2ccccc2n1	inconclusive [inhibitor, full curve, poor fit]	
CCOC(=O)C1CCN(Cc2ccc(OC)c(C)c2OC)CC1	inconclusive [inhibitor, partial curve, poor fit]	
COCCN(C(=O)COC(=O)COc1ccc(Cl)c(C)c1)c1c(N)n(Cc2ccccc2)c(=O)[nH]c1=O		inactive: -1.12%
CC(=O)Nc1ccc(S(=O)(=O)Nc2nccc(/C=C/c3ccc(Cl)cc3)n2)cc1	inconclusive [inhibitor, partial curve]	
CC(C)CCNC(=O)C(c1ccco1)N(Cc1ccccc1)C(=O)c1snc(C(N)=O)c1N (stereo unspecified)	inconclusive [inhibitor, partial curve]	
CCN1CCN(C(c2cccs2)C(C)NS(=O)(=O)c2ccc(F)cc2)CC1 (stereo unspecified)	inconclusive [inhibitor, full curve, poor fit]	
O=C(COC(=O)c1ccco1)Nc1nc2c(F)c(F)c(F)cc2s1		inactive: -10.3%
COc1ccc(C(=O)NCc2ccc3c(c2)CCN3C(=O)c2ccc(C)cc2)cc1		inactive: 10.3%

SMILES	Potency	activity change, negative = inhibition
CCCNC(=O)Nc1nc2ccccc2s1	inconclusive [inhibitor, full curve, poor fit]	
CCc1ccccc1NC(=O)C(Cc1ccccc1)c1nn[nH]n1 (stereo unspecified)	inconclusive [inhibitor, full curve, poor fit]	
O=C(Cn1cc(SCc2ccccc2F)c2ccccc21)N1CCCCC1		inactive: 12.5%
Cc1cc(=O)oc2c3c(cc(OCC(=O)N4CCC[C@H]4C(=O)O)c12)OC(C)(C)CC3	inconclusive [inhibitor, partial curve]	
Fc1cccc(CSc2nc3ncccc3[nH]2)c1		inactive: -0.867%
NC(=O)c1ccsc1NC(=O)c1nc(-c2ccccc2)n(-c2ccccc2)n1		inactive: -8.12%
OC[C@H]1O[C@H](OC[C@H]2O[C@H](OC[C@H]3O[C@H](O[C@]4(CO)O[C@H](CO)[C@@H](O)[C@@H]4O)[C@H](O)[C@@H](O)[C@@H]3O)[C@H](O)[C@@H](O)[C@H]2O)[C@H](O)[C@@H](O)[C@H]1O	inconclusive [inhibitor, partial curve, poor fit]	
NC(=O)CC(CC(=O)OCc1ccccc1)c1ccccc1 (stereo unspecified)	inconclusive [inhibitor, full curve, poor fit]	
O=C(Cn1c2ccc(F)cc2c2nc3n(c(=O)c21)CCS3)N1CCCC1	inconclusive [inhibitor, single point]	
COCCNC(=O)c1ccc2c(c1)ncn2-c1cccc(C)c1		inactive: -14%
CCOc1ccc(N=C(NC#N)SC)cc1	inconclusive [inhibitor, partial curve, poor fit]	
CC(CCc1ccccc1)NC(=O)C1CCN(S(=O)(=O)N2CCCCC2)CC1 (stereo unspecified)	inconclusive [inhibitor, partial curve]	
Cc1ccc(-n2cc(C(C)(C)C)[nH]c2=S)cc1	inconclusive [inhibitor, partial curve, poor fit]	
O=C1CCC(=O)N1CCC(c1ccc(F)cc1)c1ccco1 (stereo unspecified)		inactive: 2.23%
COC(=O)c1cc2oc(C)cc2n1CC(=O)Nc1ccc(C)c(C)c1	inconclusive [inhibitor, partial curve]	
COc1ccc(-c2csc3ncnc(N4CCN(S(=O)(=O)c5ccc(C(C)=O)cc5)CC4)c23)cc1	inconclusive [inhibitor, full curve, poor fit]	
Cc1cccnc1NC(=O)C1CCCN(S(=O)(=O)c2ccc3c(c2)oc(=O)n3C)C1 (stereo unspecified)	inconclusive [inhibitor, full curve, poor fit]	
CN(C)S(=O)(=O)c1ccc(C(=O)Nc2ccc(F)cc2F)cc1	inconclusive [inhibitor, full curve, poor fit]	
CCOC(=O)C1CCN(C(=O)CNS(=O)(=O)c2cccs2)CC1	inconclusive [inhibitor, partial curve, poor fit]	
O=C(O/N=C\c1ccc(N2CCCCC2)c([N+](=O)[O-])c1)c1ccc(Cl)cc1Cl	inconclusive [inhibitor, full curve]	
CCOP(=O)(c1c(F)c(F)c(F)c(F)c1F)C1(O)CCCCC1 (stereo unspecified)	inconclusive [inhibitor, full curve, poor fit]	
COCCn1c(=NC(=O)CCS(=O)(=O)c2ccccc2)sc2cc(C)ccc21		inactive: -8.08%

SMILES	Potency	activity change, negative = inhibition
COc1ccc(NC(=O)c2nc3nccc(C)n3n2)cn1	inconclusive [inhibitor, single point]	
CCOC(=O)Cn1cnc(-c2ccc([N+](=O)[O-])cc2)c1		inactive: -1.64%
O=C(O)CC12CC3CC(C1)CC(n1ncc(NCc4ccccc4Cl)c(Cl)c1=O)(C3)C2		inactive: -1.77%
CC(=O)c1c(C)[nH]c(C(=O)OC(C)C(=O)Nc2ccc(C)c(S(=O)(=O)N3CCOCC3)c2)c1C (stereo unspecified)	inconclusive [inhibitor, partial curve, poor fit]	
COCC(C)n1c(SCC(=O)NC(=O)Nc2ccc3c(c2)OCCO3)nc2ccccc2c1=O (stereo unspecified)		inactive: -12.7%
O=C(Nc1nccs1)C(NS(=O)(=O)c1ccc(Br)s1)c1ccccc1 (stereo unspecified)	inconclusive [inhibitor, single point]	
NC(=S)N=Nc1c(O)n(CC(=O)Nc2ccccc2)c2ccccc12	inconclusive [inhibitor, partial curve]	
Cc1cccc(Oc2nc3ccccn3c(=O)c2/C=C(\C#N)C(=O)NC2CCS(=O)(=O)C2)c1 (stereo unspecified)	inconclusive [inhibitor, full curve]	
Oc1ccc(/C=N/Nc2cccc(Cl)n2)c(O)c1	inconclusive [inhibitor, full curve]	
COc1cc(/C=C2/N=C(C3CCCCC3)OC2=O)cc(OC)c1OC		inactive: -10.3%
COc1ccc(C)cc1NC(=O)c1cn(C)c(=O)c2cc(OC)c(OC)cc12		inactive: -1.48%
CCOC(=O)c1nnn(-c2ccc(OC)cc2)c1N	inconclusive [inhibitor, full curve, poor fit]	
CCN(C(=O)Oc1ccccc1)c1ccc(C(O)(C(=O)OC)C(F)(F)F)cc1 (stereo unspecified)	inconclusive [inhibitor, full curve, poor fit]	
O=C(CS(=O)(=O)Cc1ccccc1)N1CCc2ccccc2C1		inactive: 2.31%
O=C(Nc1ncnc2sc3c(c12)CCCCC3)c1ccc(F)cc1	inconclusive [inhibitor, full curve, poor fit]	
Cc1ccc(NC(=O)NC(=O)N(C(C)C)S(C)(=O)=O)nc1	inconclusive [inhibitor, full curve, poor fit]	
Cc1nc2n[nH]c(N)c2c2c1COC(C)(C)C2	inconclusive [inhibitor, full curve, poor fit]	
CCCN1CNC(=S)N(c2cccc(C)c2C)C1	inconclusive [inhibitor, partial curve, poor fit]	
Cc1cccc(NC(=O)CC2CCC2)c1	inconclusive [inhibitor, full curve, poor fit]	
COc1ccc(C(=O)N2CCc3cc4c(cc3C2C)OCCCO4)cc1 (stereo unspecified)	inconclusive [inhibitor, full curve, poor fit]	
COc1cc2c3nnc(-c4ccc(F)cc4)c-3cn(Cc3ccccc3)c2cc1OC	inconclusive [inhibitor, full curve]	
Cc1ccc(C(=O)NC2CCc3ccccc3C2=O)cc1 (stereo unspecified)	inconclusive [inhibitor, partial curve]	
